Laboratory results taken from publication PMC5316870.
These are yes or no findings as the source states them, for the method shown. In cells and extracts the contact can be indirect. Some entries that bind do so weakly or less than the wild type. For part of these data: Where a sequence is shown, tags or fusion partners need not be part of it.

Amino acid sequences for entries named in this document (tags omitted). A change or cut given only in a name is not applied to a line headed by its entry.
UniProt O95863: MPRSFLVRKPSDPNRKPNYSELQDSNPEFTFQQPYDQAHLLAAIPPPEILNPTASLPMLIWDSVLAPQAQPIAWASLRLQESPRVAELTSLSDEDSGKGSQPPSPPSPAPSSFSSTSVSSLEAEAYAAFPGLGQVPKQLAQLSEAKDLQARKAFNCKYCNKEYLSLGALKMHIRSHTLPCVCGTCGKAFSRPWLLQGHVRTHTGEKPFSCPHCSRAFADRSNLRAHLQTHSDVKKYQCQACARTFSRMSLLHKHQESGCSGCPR

Tests used:
[1] = target: T1, GST-Dub3 (UniProt Q6R6M4); experiment: pull-down; glutathione-Sepharose-bound GST-Snail1 or GST-Dub3 rotated with HEK293 cell lysates in 20 mM Tris, 150 mM NaCl, 1% Nonidet P-40; western blot; only the target purified
T1 sequence: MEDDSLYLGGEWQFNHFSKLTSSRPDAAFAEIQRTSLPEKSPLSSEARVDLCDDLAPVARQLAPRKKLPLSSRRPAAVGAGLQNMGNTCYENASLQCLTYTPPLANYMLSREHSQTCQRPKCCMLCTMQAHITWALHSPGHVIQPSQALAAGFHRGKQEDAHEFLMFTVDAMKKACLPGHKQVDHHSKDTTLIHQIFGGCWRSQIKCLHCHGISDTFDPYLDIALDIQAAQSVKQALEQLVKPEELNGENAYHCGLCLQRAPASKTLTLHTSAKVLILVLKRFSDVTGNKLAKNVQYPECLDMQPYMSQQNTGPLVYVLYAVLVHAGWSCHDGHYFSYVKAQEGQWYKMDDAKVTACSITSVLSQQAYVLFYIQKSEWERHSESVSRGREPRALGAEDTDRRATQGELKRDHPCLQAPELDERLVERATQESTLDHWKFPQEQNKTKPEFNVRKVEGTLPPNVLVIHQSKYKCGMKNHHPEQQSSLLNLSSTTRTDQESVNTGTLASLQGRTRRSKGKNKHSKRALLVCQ

[2] = target: T2, endogenous Dub3 (MDA-MB231 and MDA-MB157 cells) (human (endogenous in MDA-MB231 and MDA-MB157)) (UniProt Q6R6M4); experiment: co-IP; endogenous Snail1 and Dub3 captured by IP from MDA-MB231 and MDA-MB157 cells; western blot
T2 sequence: T1 sequence

[3] = target: T3, Flag-Dub3 (UniProt Q6R6M4); experiment: co-IP; proteins co-expressed in HEK293 cells by transient transfection; lysis in 50 mM Tris pH 7.5, 150 mM NaCl, 1% Nonidet P-40, 1 mM EDTA, 0.25% deoxycholate; IP overnight at 4 °C with tag antibody on agarose beads; western blot
T3 sequence: T1 sequence

[4] = target: Flag-tagged N-terminal Snail1 (amino acids 1-153) (UniProt O95863); experiment: as above
[5] = target: HA-Snail1 (UniProt O95863); experiment: as above
[6] = target: Flag-tagged full-length (FL) Snail1 (UniProt O95863); experiment: as above
[7] = target: GST-Snail1 (UniProt O95863); experiment: pull-down; glutathione-Sepharose-bound GST-Snail1 or GST-Dub3 rotated with HEK293 cell lysates in 20 mM Tris, 150 mM NaCl, 1% Nonidet P-40; western blot; only the target purified
[8] = target: Snail1 co-expressed with DUBs in HEK293 cells (Supplementary Fig. 1c) (UniProt O95863); experiment: co-IP; proteins co-expressed in HEK293 cells by transient transfection; lysis in 50 mM Tris pH 7.5, 150 mM NaCl, 1% Nonidet P-40, 1 mM EDTA, 0.25% deoxycholate; IP overnight at 4 °C with tag antibody on agarose beads; western blot
[9] = target: endogenous Snail1 (MDA-MB231 and MDA-MB157 cells) (human (endogenous in MDA-MB231 and MDA-MB157)) (UniProt O95863); experiment: co-IP; endogenous Snail1 and Dub3 captured by IP from MDA-MB231 and MDA-MB157 cells; western blot

Q: Which binding [1] does the source give for “Flag-tagged N-terminal Snail1 (amino acids 1-153) (from UniProt O95863 1-153) (domain or fragment)” here?
A: binds

Q: Which binding [2] does the source give for “endogenous Snail1 (MDA-MB231 and MDA-MB157 cells) (from UniProt O95863 1-264)” here?
A: binds

Q: For “Flag-tagged C-terminal Snail1 (amino acids 153-264) (from UniProt O95863 153-264) (domain or fragment)”, which binding [1] is on record?
A: no binding

Q: For HA-Snail1 (from UniProt O95863 1-264), which binding [3] is on record?
A: binds

Q: Which binding [1] does the source give for “Flag-tagged full-length (FL) Snail1 (from UniProt O95863 1-264)” here?
A: binds

B1: Myc-tagged full-length Dub3 (enzyme, UniProt Q6R6M4 1-530)
chain: T1 sequence
Q: For B1, which binding [4] is on record?
A: binds

Q: What about the binding [5] of the same molecule?
A: binds

Q: And the binding [6]?
A: binds

Q: What about the binding [7] of the same molecule?
A: binds

B2: Dub3 co-expressed with Snail1 in HEK293 cells (Supplementary Fig. 1c) (enzyme, UniProt Q6R6M4 1-530)
chain: T1 sequence
Q: B2 was tested. Which binding [8] did it give?
A: binds

B3: Flag-Dub3 (enzyme, UniProt Q6R6M4 1-530)
chain: T1 sequence
Q: Which binding [5] does the source give for B3 here?
A: binds

B4: endogenous Dub3 (MDA-MB231 and MDA-MB157 cells) (enzyme, UniProt Q6R6M4 1-530)
chain: T1 sequence
Q: With B4 as the molecule, how does the binding [9] read?
A: binds
